In all, about 33,000 sequences were measured (“E-score (-0.5 to 0.5)”: median about -0.011, highest 2% from about 0.28 on). This is one part of the list.
molecular target: T1, Gcr1 (UniProt P07261); experiment: PBM E-score (8-mer binding enrichment) (E-score (-0.5 to 0.5)); higher = stronger / more preferred TF binding; most listed sequences are background and not binding sites; conditions: protein concentration: 100 nM; construct: GST-full length
T1 sequence: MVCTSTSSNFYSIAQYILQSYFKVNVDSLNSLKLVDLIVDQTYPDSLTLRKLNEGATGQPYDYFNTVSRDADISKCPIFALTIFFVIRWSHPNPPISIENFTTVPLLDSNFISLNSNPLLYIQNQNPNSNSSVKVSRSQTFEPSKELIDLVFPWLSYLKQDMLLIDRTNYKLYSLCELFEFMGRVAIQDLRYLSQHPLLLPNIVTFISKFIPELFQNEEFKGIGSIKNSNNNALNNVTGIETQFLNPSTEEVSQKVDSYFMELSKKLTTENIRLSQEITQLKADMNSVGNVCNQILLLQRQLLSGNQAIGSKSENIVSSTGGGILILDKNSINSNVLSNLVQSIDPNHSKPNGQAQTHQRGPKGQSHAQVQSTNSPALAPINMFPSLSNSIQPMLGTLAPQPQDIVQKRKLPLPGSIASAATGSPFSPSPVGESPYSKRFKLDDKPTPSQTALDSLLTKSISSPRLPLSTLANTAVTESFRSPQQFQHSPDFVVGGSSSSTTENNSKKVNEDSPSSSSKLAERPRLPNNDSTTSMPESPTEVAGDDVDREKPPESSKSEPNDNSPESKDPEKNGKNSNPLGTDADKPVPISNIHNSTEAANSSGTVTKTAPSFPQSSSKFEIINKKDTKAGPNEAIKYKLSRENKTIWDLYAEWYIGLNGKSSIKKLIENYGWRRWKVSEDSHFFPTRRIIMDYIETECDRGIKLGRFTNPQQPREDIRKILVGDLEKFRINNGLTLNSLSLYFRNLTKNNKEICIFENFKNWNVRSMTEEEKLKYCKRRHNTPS
Outline: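 Universal all-10-mer Agilent arrays, double-stranded by primer extension on fresh or once-stripped slides, were probed with about 100-200 nM GST-tagged yeast transcription factors made by PURExpress. Fluorescent anti-GST detected bound protein, and masliner normalised the scans. E-scores from the Universal PBM Analysis Suite were given to each ungapped eight-base word pooled with its reverse complement.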

First: CGATCCAA
Second: ATCGAATG
The “PBM E-score” value of the first is higher: 0.0146 for the first, 0.0142 for the second.

First: CTATGTAA
Second: AGTGGCTG
The “PBM E-score” value of the first is lower: 0.017 for the first, 0.312 for the second.

First: AGGCCTGA
Second: CACACTTA
The “PBM E-score” value of the first is higher: -0.0996 for the first, -0.298 for the second.

Going from GAGGAGTA to GCAACGTA, the “PBM E-score” value rises from -0.0619 to 0.14.

Going from AGTTAGAA to CCGGTGTA, the “PBM E-score” value falls from 0.0734 to -0.0896.

First: CCTAAGTA
Second: AACGGCCT
The “PBM E-score” value of the first is higher: 0.114 for the first, -0.21 for the second.

First: GGTGAACC
Second: CCCCGATA
The “PBM E-score” value of the first is lower: -0.161 for the first, -0.0488 for the second.

Going from CTCGTGGC to AGTCTATC, the “PBM E-score” value falls from 0.0439 to -0.228.

Going from CCCTTAAG to ATCCGATC, the “PBM E-score” value rises from -0.156 to 0.0296.

Compared with TATATTGA, ACAACATC is lower in “PBM E-score” value: 0.038 for the first, 0.0147 for the second.

Compared with GCTTATCA, AATAACGC is lower in “PBM E-score” value: -0.0188 for the first, -0.126 for the second.

First: CTAAAAGA
Second: GCTGAGTA
The “PBM E-score” value of the first is higher: -0.00143 for the first, -0.192 for the second.

Compared with ATTAATGG, ATATACCA is lower in “PBM E-score” value: 0.161 for the first, -0.132 for the second.

Going from CCAACTGG to ATTAACTA, the “PBM E-score” value falls from 0.0404 to 0.0224.

Compared with ATACCGAC, ACTCGTAC is lower in “PBM E-score” value: 0.0005 for the first, -0.136 for the second.

First: GGCTAACA
Second: AACTAGTT
The “PBM E-score” value of the first is lower: -0.19 for the first, 0.0246 for the second.

Compared with GTTCTCCA, CGACCAAA is higher in “PBM E-score” value: -0.137 for the first, -0.129 for the second.

First: CGTATGGA
Second: AAATATAC
The “PBM E-score” value of the first is higher: 0.116 for the first, 0.0716 for the second.

Compared with GGATCATA, TAGGTGGA is higher in “PBM E-score” value: 0.00563 for the first, 0.0169 for the second.

First: CCATATAG
Second: ATGCCTCG
The “PBM E-score” value of the first is higher: 0.182 for the first, -0.138 for the second.

First: ACCGGGCA
Second: AAAGCTGC
The “PBM E-score” value of the first is higher: 0.0497 for the first, -0.123 for the second.

Compared with GGAGTGCC, AGAGAGGG is lower in “PBM E-score” value: 0.0413 for the first, -0.124 for the second.

First: CATGCAGC
Second: AACGGTGG
The “PBM E-score” value of the first is lower: -0.18 for the first, -0.107 for the second.

First: CATAAGAG
Second: AGAAGCTC
The “PBM E-score” value of the first is lower: -0.025 for the first, 0.273 for the second.

First: AACCGATG
Second: GCCCGACA
The “PBM E-score” value of the first is lower: -0.0829 for the first, 0.0396 for the second.

First: ACGATGAC
Second: CGCGTCCG
The “PBM E-score” value of the first is lower: -0.0116 for the first, 0.0649 for the second.

Going from GTCAATCA to AATGAGCC, the “PBM E-score” value rises from -0.226 to -0.123.

Going from AAATGTCT to ATCTTCCC, the “PBM E-score” value rises from -0.058 to -0.0481.

First: CCAAGATC
Second: CGCTCGTC
The “PBM E-score” value of the first is higher: 0.201 for the first, -0.218 for the second.

First: ACTGCACG
Second: TCGAGGAA
The “PBM E-score” value of the first is lower: -0.258 for the first, -0.0383 for the second.

Compared with AACACTTG, GCCTACAA is lower in “PBM E-score” value: -0.0906 for the first, -0.132 for the second.

First: CCCCGAGA
Second: CGGAGTTA
The “PBM E-score” value of the first is higher: 0.0712 for the first, -0.0496 for the second.

First: GTTCTAAA
Second: CGCTCCAA
The “PBM E-score” value of the first is higher: 0.0776 for the first, -0.0355 for the second.

Compared with GATGATTA, CGTCCGCA is lower in “PBM E-score” value: -0.0692 for the first, -0.162 for the second.

First: ACGTTTCC
Second: ACTAGTAC
The “PBM E-score” value of the first is lower: 0.0116 for the first, 0.0609 for the second.

First: CGTTCTAG
Second: CTAGACAG
The “PBM E-score” value of the first is higher: 0.0647 for the first, -0.0841 for the second.

Compared with ACTCCCAA, CTCGAAAG is lower in “PBM E-score” value: 0.056 for the first, -0.0701 for the second.

Going from GATCTTCA to GCCTTTTA, the “PBM E-score” value rises from -0.101 to -0.0056.

Going from ACTAAAAA to AATTAAGA, the “PBM E-score” value rises from 0.0363 to 0.125.

First: GAGACCAA
Second: CTACAGCA
The “PBM E-score” value of the first is higher: 0.0139 for the first, 0.0064 for the second.

Going from CAATGACA to GTGTGCAA, the “PBM E-score” value falls from -0.0519 to -0.105.

Compared with ACGATGAG, GCATTCAA is higher in “PBM E-score” value: -0.24 for the first, 0.0558 for the second.

Going from GCTGTTGA to CCCTAATA, the “PBM E-score” value rises from -0.111 to 0.24.

Compared with CGATCACA, GAGACATA is higher in “PBM E-score” value: -0.0285 for the first, 0.0764 for the second.

Compared with CAAACTGA, AATGGTAA is lower in “PBM E-score” value: 0.105 for the first, -0.104 for the second.

Going from GAAATAAA to CGCCTGAG, the “PBM E-score” value falls from 0.206 to -0.0508.

Going from CGACCGCG to ACACACCT, the “PBM E-score” value rises from -0.115 to -0.012.

Going from CATAAGTA to CGGACGCA, the “PBM E-score” value falls from 0.188 to 0.0459.

First: ATATTACG
Second: CCACCCCA
The “PBM E-score” value of the first is lower: 0.091 for the first, 0.116 for the second.

Going from ATTTATAG to AATGATCG, the “PBM E-score” value falls from -0.0198 to -0.182.

Compared with AGCTTGTC, ACCACGAG is higher in “PBM E-score” value: -0.128 for the first, -0.0324 for the second.

First: CGCCTCGC
Second: CGCCCGTA
The “PBM E-score” value of the first is lower: -0.00832 for the first, 0.125 for the second.

First: CATTAGAA
Second: ACTTACTC
The “PBM E-score” value of the first is higher: 0.0456 for the first, -0.243 for the second.

Compared with ACTATGAT, ACATTAGC is higher in “PBM E-score” value: -0.0815 for the first, 0.148 for the second.

Compared with GCACGGCC, ATGGGACA is higher in “PBM E-score” value: -0.128 for the first, 0.0104 for the second.

Going from GAGGCCAA to AATTGAGA, the “PBM E-score” value rises from -0.00152 to 0.147.

Compared with CCGATTAC, CAGGACAG is higher in “PBM E-score” value: -0.0535 for the first, 0.0268 for the second.

Compared with ATCAAATC, ACCAGTAT is higher in “PBM E-score” value: 0.0142 for the first, 0.278 for the second.

First: GGGCACCC
Second: AAGAAACA
The “PBM E-score” value of the first is higher: 0.321 for the first, 0.0455 for the second.

First: TACCACTA
Second: AAATTTCA
The “PBM E-score” value of the first is higher: 0.365 for the first, 0.0803 for the second.

Going from ACTGGGTA to ATCTTATG, the “PBM E-score” value rises from 0.0422 to 0.093.

Compared with ACCTGGCA, CGTTTCAA is lower in “PBM E-score” value: -0.0308 for the first, -0.0791 for the second.

First: ATTGGATA
Second: TGCTAACA
The “PBM E-score” value of the first is lower: 0.00978 for the first, 0.0488 for the second.

First: AATATCGT
Second: GTAGACCA
The “PBM E-score” value of the first is higher: 0.26 for the first, -0.167 for the second.

Compared with AGAATACA, GATGGCGA is lower in “PBM E-score” value: -0.0397 for the first, -0.175 for the second.

First: CGGGAGGA
Second: AGGGCAGG
The “PBM E-score” value of the first is higher: -0.155 for the first, -0.173 for the second.

Going from ATCGGCCG to ACAAAGGA, the “PBM E-score” value rises from -0.15 to 0.00803.

Going from CTCCAATA to CAATTAGG, the “PBM E-score” value rises from 0.075 to 0.223.

First: AGACGTCG
Second: GACGGTAA
The “PBM E-score” value of the first is higher: 0.117 for the first, 0.0114 for the second.

Compared with CACCTATA, TACACTGA is lower in “PBM E-score” value: 0.0595 for the first, -0.0218 for the second.

Compared with GCCCTGAC, ACATTCGT is lower in “PBM E-score” value: 0.0741 for the first, -0.0774 for the second.

Going from AGTATCGG to TCACACGA, the “PBM E-score” value rises from -0.0989 to -0.0736.

Compared with ATGATTAA, ACAGACTG is lower in “PBM E-score” value: 0.0525 for the first, -0.139 for the second.

Going from GAAGCGAA to AACGGGGT, the “PBM E-score” value falls from 0.133 to -0.0406.

First: CCCTCAAA
Second: GTGAGAAC
The “PBM E-score” value of the first is lower: -0.236 for the first, -0.0123 for the second.

Compared with CACTGAGC, AGGGATCA is lower in “PBM E-score” value: -0.00627 for the first, -0.054 for the second.

Compared with ATTAATTC, AGCAACCC is lower in “PBM E-score” value: 0.0449 for the first, 0.00142 for the second.

Compared with GTAAAGAC, GTCATGGA is higher in “PBM E-score” value: -0.129 for the first, -0.0358 for the second.

Compared with TAGCCGCA, AAAGGACA is lower in “PBM E-score” value: -0.115 for the first, -0.132 for the second.

First: AGAAAACA
Second: CGGAAACC
The “PBM E-score” value of the first is lower: -0.00733 for the first, 0.0955 for the second.

Going from ACAAATGC to CATTGTGG, the “PBM E-score” value rises from -0.107 to 0.172.

Compared with ATTCATTA, TCCCAGCA is lower in “PBM E-score” value: 0.0907 for the first, 0.0476 for the second.

Going from CATCGTTA to GACCTCAC, the “PBM E-score” value falls from -0.109 to -0.247.

First: AGGCCTAC
Second: CGGTTAAC
The “PBM E-score” value of the first is lower: -0.13 for the first, -0.0371 for the second.

Compared with ATATCCTG, AACAGATT is higher in “PBM E-score” value: -0.0238 for the first, 0.0831 for the second.

Going from CGGGTTTC to AAGCCGTG, the “PBM E-score” value falls from 0.0736 to 0.0549.
